Data from paper PMC9911399, “Two distinct binding modes provide the RNA-binding protein RbFox with extraordinary sequence specificity”.
Where a chain is given by its changes, count along the chain named. This is one part of the list.

T1: RBFOX1 RRM (Homo sapiens, UniProt Q9NWB1 109-208)
T1 sequence: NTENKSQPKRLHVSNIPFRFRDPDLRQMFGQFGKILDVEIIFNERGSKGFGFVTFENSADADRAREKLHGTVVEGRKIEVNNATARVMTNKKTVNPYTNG

B1: GUUCGCG (DNA:RNA)
RNA: GGGAGACCGGAAUUCAGAUUGUCCGUUCGCGUUAAAUCCCGUCGUAGCCACCA
DNA 1: CAATCTGAATTCCGGTCTCCC
DNA 2: TGGTGGCTACGACGGGATT
B2: CAAGUCG (DNA:RNA)
RNA: B1 RNA with G25C, U26A, U27A, C28G, G29U
DNA 1: CAATCTGAATTCCGGTCTCCC
DNA 2: TGGTGGCTACGACGGGATT
B3: CAUCCUG (DNA:RNA)
RNA: B1 RNA with G25C, U26A, G29C, C30U
DNA 1: CAATCTGAATTCCGGTCTCCC
DNA 2: TGGTGGCTACGACGGGATT
B4: CUCCUUC (DNA:RNA)
RNA: B1 RNA with G25C, U27C, G29U, C30U, G31C
DNA 1: CAATCTGAATTCCGGTCTCCC
DNA 2: TGGTGGCTACGACGGGATT
B5: GUUGAAG (DNA:RNA)
RNA: B1 RNA with C28G, G29A, C30A
DNA 1: CAATCTGAATTCCGGTCTCCC
DNA 2: TGGTGGCTACGACGGGATT
B6: GGCAUCA (DNA:RNA)
RNA: B1 RNA with U26G, U27C, C28A, G29U, G31A
DNA 1: CAATCTGAATTCCGGTCTCCC
DNA 2: TGGTGGCTACGACGGGATT
B7: UCUCUCA (DNA:RNA)
RNA: B1 RNA with G25U, U26C, G29U, G31A
DNA 1: CAATCTGAATTCCGGTCTCCC
DNA 2: TGGTGGCTACGACGGGATT
B8: UCGAUUC (DNA:RNA)
RNA: GGGAGACCGGAAUUCAGAUUGUCCUCGAUUCUUAAAUCCCGUCGUAGCCACCA
DNA 1: CAATCTGAATTCCGGTCTCCC
DNA 2: TGGTGGCTACGACGGGATT
B9: UCGACAG (DNA:RNA)
RNA: B8 RNA with U29C, U30A, C31G
DNA 1: CAATCTGAATTCCGGTCTCCC
DNA 2: TGGTGGCTACGACGGGATT
B10: GUCGCAG (DNA:RNA)
RNA: B1 RNA with U27C, C28G, G29C, C30A
DNA 1: CAATCTGAATTCCGGTCTCCC
DNA 2: TGGTGGCTACGACGGGATT
B11: GGGUAAG (DNA:RNA)
RNA: B1 RNA with U26G, U27G, C28U, G29A, C30A
DNA 1: CAATCTGAATTCCGGTCTCCC
DNA 2: TGGTGGCTACGACGGGATT
B12: UGUUGAA (DNA:RNA)
RNA: B1 RNA with G25U, U26G, C28U, C30A, G31A
DNA 1: CAATCTGAATTCCGGTCTCCC
DNA 2: TGGTGGCTACGACGGGATT
B13: CUUGCGC (DNA:RNA)
RNA: B1 RNA with G25C, C28G, G29C, C30G, G31C
DNA 1: CAATCTGAATTCCGGTCTCCC
DNA 2: TGGTGGCTACGACGGGATT
B14: AGUGAUA (DNA:RNA)
RNA: B1 RNA with G25A, U26G, C28G, G29A, C30U, G31A
DNA 1: CAATCTGAATTCCGGTCTCCC
DNA 2: TGGTGGCTACGACGGGATT
B15: AUCCCCC (DNA:RNA)
RNA: B1 RNA with G25A, U27C, G29C, G31C
DNA 1: CAATCTGAATTCCGGTCTCCC
DNA 2: TGGTGGCTACGACGGGATT
B16: AAGGGCG (DNA:RNA)
RNA: B1 RNA with G25A, U26A, U27G, C28G
DNA 1: CAATCTGAATTCCGGTCTCCC
DNA 2: TGGTGGCTACGACGGGATT
B17: CCACUUU (DNA:RNA)
RNA: B8 RNA with U25C, G27A, A28C, C31U
DNA 1: CAATCTGAATTCCGGTCTCCC
DNA 2: TGGTGGCTACGACGGGATT
B18: GUUUCAC (DNA:RNA)
RNA: B1 RNA with C28U, G29C, C30A, G31C
DNA 1: CAATCTGAATTCCGGTCTCCC
DNA 2: TGGTGGCTACGACGGGATT
B19: UUUCGGC (DNA:RNA)
RNA: B1 RNA with G25U, C30G, G31C
DNA 1: CAATCTGAATTCCGGTCTCCC
DNA 2: TGGTGGCTACGACGGGATT
B20: GGUAUCU (DNA:RNA)
RNA: B1 RNA with U26G, C28A, G29U, G31U
DNA 1: CAATCTGAATTCCGGTCTCCC
DNA 2: TGGTGGCTACGACGGGATT
B21: AUAACUU (DNA:RNA)
RNA: B8 RNA with U25A, C26U, G27A, U29C, C31U
DNA 1: CAATCTGAATTCCGGTCTCCC
DNA 2: TGGTGGCTACGACGGGATT
B22: AAAGACA (DNA:RNA)
RNA: B1 RNA with G25A, U26A, U27A, C28G, G29A, G31A
DNA 1: CAATCTGAATTCCGGTCTCCC
DNA 2: TGGTGGCTACGACGGGATT
B23: CGGAGCC (DNA:RNA)
RNA: B8 RNA with U25C, C26G, U29G, U30C
DNA 1: CAATCTGAATTCCGGTCTCCC
DNA 2: TGGTGGCTACGACGGGATT
B24: UAGCUGU (DNA:RNA)
RNA: B8 RNA with C26A, A28C, U30G, C31U
DNA 1: CAATCTGAATTCCGGTCTCCC
DNA 2: TGGTGGCTACGACGGGATT
B25: UCCUGAC (DNA:RNA)
RNA: B8 RNA with G27C, A28U, U29G, U30A
DNA 1: CAATCTGAATTCCGGTCTCCC
DNA 2: TGGTGGCTACGACGGGATT
B26: UCUAGCU (DNA:RNA)
RNA: B1 RNA with G25U, U26C, C28A, G31U
DNA 1: CAATCTGAATTCCGGTCTCCC
DNA 2: TGGTGGCTACGACGGGATT
B27: UCUCGGA (DNA:RNA)
RNA: B1 RNA with G25U, U26C, C30G, G31A
DNA 1: CAATCTGAATTCCGGTCTCCC
DNA 2: TGGTGGCTACGACGGGATT
B28: GGUGGGA (DNA:RNA)
RNA: B1 RNA with U26G, C28G, C30G, G31A
DNA 1: CAATCTGAATTCCGGTCTCCC
DNA 2: TGGTGGCTACGACGGGATT
B29: UGUCGAA (DNA:RNA)
RNA: B1 RNA with G25U, U26G, C30A, G31A
DNA 1: CAATCTGAATTCCGGTCTCCC
DNA 2: TGGTGGCTACGACGGGATT
B30: UGCCUAU (DNA:RNA)
RNA: B8 RNA with C26G, G27C, A28C, U30A, C31U
DNA 1: CAATCTGAATTCCGGTCTCCC
DNA 2: TGGTGGCTACGACGGGATT
B31: UCAUAAU (DNA:RNA)
RNA: B8 RNA with G27A, A28U, U29A, U30A, C31U
DNA 1: CAATCTGAATTCCGGTCTCCC
DNA 2: TGGTGGCTACGACGGGATT

molecular target: T1, RBFOX1 RRM; test: EMSA; HiTS-Eq, 1 nM pool, 10 min; buffer printed only for the single-RNA assays: 10 mM Tris pH 7.5, 150 mM NaCl, 3.4 mM EDTA, 0.001% NP-40, 30 C; details: tags: His6 N-terminal (pET28a); label: 5' 32P
How it was run: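 A pool of RNA with 7 randomized nucleotides, 5′-radiolabelled and with DNA-annealed flanks, was equilibrated at 1 nM for 10 min in 50 µL with purified RbFox RRM, wild type or mutant, across increasing protein concentrations. Free RNA was separated by 8% native PAGE, excised, reverse-transcribed, barcoded by PCR and sequenced. Relative association constants were obtained from read-count changes of each RNA species versus the control reaction and normalised to the cognate motif.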

Row | Binder | binding signal
1 | B1 | 0.0138 KA relative to UGCAUGU
2 | B2 | 0.004 KA relative to UGCAUGU
3 | B3 | 0.00674 KA relative to UGCAUGU
4 | B4 | 0.0103 KA relative to UGCAUGU
5 | B5 | 0.0191 KA relative to UGCAUGU
6 | B6 | 0.00648 KA relative to UGCAUGU
7 | B7 | 0.00383 KA relative to UGCAUGU
8 | B8 | 0.00846 KA relative to UGCAUGU
9 | B9 | 0.00975 KA relative to UGCAUGU
10 | B10 | 0.0181 KA relative to UGCAUGU
11 | B11 | 0.015 KA relative to UGCAUGU
12 | B12 | 0.0261 KA relative to UGCAUGU
13 | B13 | 0.0173 KA relative to UGCAUGU
14 | B14 | 0.00615 KA relative to UGCAUGU
15 | B15 | 0.00186 KA relative to UGCAUGU
16 | B16 | 0.0115 KA relative to UGCAUGU

Row | Binder | binding signal
17 | B17 | 0.00282 KA relative to UGCAUGU
18 | B18 | 0.016 KA relative to UGCAUGU
19 | B19 | 0.0103 KA relative to UGCAUGU
20 | B20 | 0.00479 KA relative to UGCAUGU
21 | B21 | 0.00107 KA relative to UGCAUGU
22 | B22 | 0.00183 KA relative to UGCAUGU
23 | B23 | 0.0278 KA relative to UGCAUGU
24 | B24 | 0.0138 KA relative to UGCAUGU
25 | B25 | 0.0129 KA relative to UGCAUGU
26 | B26 | 0.00555 KA relative to UGCAUGU
27 | B27 | 0.00861 KA relative to UGCAUGU
28 | B28 | 0.0125 KA relative to UGCAUGU
29 | B29 | 0.0215 KA relative to UGCAUGU
30 | B30 | 0.0165 KA relative to UGCAUGU
31 | B31 | 0.000195 KA relative to UGCAUGU
